These results are taken from patent US20110008356A1 (published 2011).

This test addresses T1, Human IL-17RA:Fc (human, UniProt Q96F46 33-320).
T1 construct: extracellular domain; Prepared essentially as in Yao 1995 Immunity; captured on the SPR chip by goat anti-human IgG Fc antibody; also called huIL-17RA:Fc; human IL-17RA:Fc fusion protein; not shown: Fc region of human IgG
As to the kind of experiment: SPR (BIAcore 3000), receptor:Fc captured by anti-human Fc, cytokine as analyte, koff/kon, 1:1 Langmuir fit. As for the experimental part: The binding affinities of IL-17A and IL-17F to the extracellular domains of human IL-17RA and human IL-17RC fused to the Fc region of human IgG were determined by surface plasmon resonance (BIAcore™) and cell binding analyses. Surface Plasmon Resonance kinetic analysis was performed using a BIAcore 3000™ instrument (Biacore, Inc., Piscataway, N.J.) run at 25° C. To prepare the chip surface, a goat-anti-human IgG Fc gamma-specific capture antibody (Jackson ImmunoResearch, West Grove, Pa.) was immobilized on two flow cells of either a CM4 or CM5 chip following the manufacturer's instructions. 100-300 response units of either human IL-17RA:Fc or human IL-17RC:Fc proteins were captured on one of the two flow cells while the other flow cell was used as a control. Eight concentrations of the analytes (human and murine IL-17A and IL-17F) were injected over the test and control flow cells in the IL-17RA range of 0.041-1500 nM (except for human IL-17F binding to human IL-17RA:Fc which was used at a higher IL-17RA range of 46.9-6000 nM) and allowed to associate for 3-5 minutes and dissociate for 10-30 minutes. Kinetic runs were performed in running buffer (10 mM Hepes, 150 mM NaCl, 3 mM EDTA, 0.005% P-20) with 100 ug/ml BSA added, at a flow rate of IL-17RA of 50 ul/min. […]
A general note: In SPR one partner is held on a chip, and binding of the other changes the refractive index at the surface.

B1: Human IL-17A (ligand)
chain: not shown
notes: Bought reagent; also called huIL-17
For B1, the dissociation constant (Kd) was 500 pM.

Usually Kd stands for the concentration at which binding is half-saturated.
